Results taken from the supplement of paper PMC4967469.
By IC50 is meant the dose at which the fit gives 50% viability; where the fit passes the top or lowest dose, that dose stands as a limit. For AUC the same curve is integrated over the 256-fold range of doses and scaled to a fraction: 1 means no effect, lower means more sensitive.

Compound: N#CC[C@H](C1CCCC1)n1cc(-c2ncnc3[nH]ccc23)cn1 [Ruxolitinib]
Experiment: Viability of human cancer cell lines after 72 h of drug (GDSC screen)
Procedure: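 Human cancer cell lines in 384-well plates, medium with 10% serum, drug for 72 h over a 256-fold dose range (nine 2-fold or five 4-fold steps up to the top dose). Adherent lines were fixed and stained with the nucleic acid dye Syto60, suspension lines read with resazurin; signal relative to control wells, capped at 0 and 100%. One two-parameter sigmoid per drug and line, fitted in a mixed model over all curves with the slope shared within a line.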

Row | Cell Line | AUC | IC50 [µM]
1 | DBTRG-05MG (glioma, adherent, top dose 5.24 µM) | 0.984 | > 5.24
2 | YT (lymphoid neoplasm, suspension, top dose 5.24 µM) | 0.774 | 1.76
3 | NCI-H1651 (lung adenocarcinoma, adherent, top dose 5.24 µM) | 0.987 | > 5.24
4 | HO-1-u-1 (head and neck, adherent, top dose 5.24 µM) | 0.988 | > 5.24
5 | 8-MG-BA (glioma, adherent, top dose 5.24 µM) | 0.987 | > 5.24
6 | NKM-1 (acute myeloid leukaemia, suspension, top dose 5.24 µM) | 0.983 | > 5.24
7 | ES3 (Ewing sarcoma, adherent, top dose 5.24 µM) | 0.956 | > 5.24
8 | PC-14 (lung adenocarcinoma, adherent, top dose 5.24 µM) | 0.974 | > 5.24
9 | M14 (melanoma, adherent, top dose 5.24 µM) | 0.985 | > 5.24
10 | ARH-77 (myeloma, suspension, top dose 5.24 µM) | 0.965 | > 5.24
11 | TUR (B-cell lymphoma, suspension, top dose 5.24 µM) | 0.859 | 3.81
12 | HCE-4 (oesophagus, adherent, top dose 5.24 µM) | 0.991 | > 5.24
13 | NCI-H211 (small cell lung carcinoma, adherent, top dose 5.24 µM) | 0.981 | > 5.24
14 | OACp4C (oesophagus, adherent, top dose 5.24 µM) | 0.974 | > 5.24
15 | LCLC-103H (large cell lung carcinoma, adherent, top dose 5.24 µM) | 0.989 | > 5.24
16 | KE-37 (lymphoblastic leukaemia, suspension, top dose 5.24 µM) | 0.99 | > 5.24
17 | UACC-812 (breast, adherent, top dose 5.24 µM) | 0.99 | > 5.24
18 | PA-TU-8988T (pancreas, adherent, top dose 5.24 µM) | 0.987 | > 5.24
19 | DMS-79 (small cell lung carcinoma, suspension, top dose 5.24 µM) | 0.979 | > 5.24
20 | COLO-320-HSR (large intestine, suspension, top dose 5.24 µM) | 0.98 | > 5.24
21 | H2818 (mesothelioma, adherent, top dose 5.24 µM) | 0.988 | > 5.24
22 | L-1236 (Hodgkin lymphoma, suspension, top dose 5.24 µM) | 0.669 | 0.889
23 | IST-SL2 (small cell lung carcinoma, suspension, top dose 5.24 µM) | 0.974 | > 5.24
24 | RPMI-2650 (head and neck, adherent, top dose 5.24 µM) | 0.984 | > 5.24
25 | MEL-JUSO (melanoma, adherent, top dose 5.24 µM) | 0.982 | > 5.24
26 | SH-4 (melanoma, adherent, top dose 5.24 µM) | 0.964 | > 5.24
27 | P31-FUJ (acute myeloid leukaemia, suspension, top dose 5.24 µM) | 0.996 | > 5.24

Row | Cell Line | AUC | IC50 [µM]
28 | COLO-824 (breast, adherent, top dose 5.24 µM) | 0.98 | > 5.24
29 | OVCAR-5 (ovary, adherent, top dose 5.24 µM) | 0.982 | > 5.24
30 | CAL-33 (head and neck, adherent, top dose 5.24 µM) | 0.984 | > 5.24
31 | OSC-19 (head and neck, adherent, top dose 5.24 µM) | 0.973 | > 5.24
32 | HCC-44 (lung adenocarcinoma, adherent, top dose 5.24 µM) | 0.966 | > 5.24
33 | NMC-G1 (glioma, adherent, top dose 5.24 µM) | 0.98 | > 5.24
34 | KS-1 (glioma, adherent, top dose 5.24 µM) | 0.972 | > 5.24
35 | NB13 (neuroblastoma, adherent, top dose 5.24 µM) | 0.985 | > 5.24
36 | SNU-449 (liver, adherent, top dose 5.24 µM) | 0.962 | > 5.24
37 | K5 (thyroid, adherent, top dose 5.24 µM) | 0.987 | > 5.24
38 | KURAMOCHI (ovary, adherent, top dose 5.24 µM) | 0.984 | > 5.24
39 | CCRF-CEM (lymphoblastic leukaemia, suspension, top dose 5.24 µM) | 0.99 | > 5.24
40 | IGR-37 (melanoma, adherent, top dose 5.24 µM) | 0.989 | > 5.24
41 | LU-65 (large cell lung carcinoma, suspension, top dose 5.24 µM) | 0.968 | > 5.24
42 | CAL-72 (osteosarcoma, adherent, top dose 5.24 µM) | 0.984 | > 5.24
43 | KMRC-20 (kidney, adherent, top dose 5.24 µM) | 0.989 | > 5.24
44 | SK-ES-1 (Ewing sarcoma, semi-adherent, top dose 5.24 µM) | 0.965 | > 5.24
45 | D-423MG (glioma, adherent, top dose 5.24 µM) | 0.981 | > 5.24
46 | RMG-I (ovary, adherent, top dose 5.24 µM) | 0.974 | > 5.24
47 | SU-DHL-1 (anaplastic large cell lymphoma, suspension, top dose 5.24 µM) | 0.956 | > 5.24
48 | CHP-212 (neuroblastoma, adherent, top dose 5.24 µM) | 0.875 | 4.47
49 | OVMIU (ovary, adherent, top dose 5.24 µM) | 0.974 | > 5.24
50 | NCC021 (kidney, adherent, top dose 5.24 µM) | 0.985 | > 5.24
51 | BT-474 (breast, adherent, top dose 5.24 µM) | 0.986 | > 5.24
52 | SCC-3 (B-cell lymphoma, suspension, top dose 5.24 µM) | 0.997 | > 5.24
53 | SK-MEL-1 (melanoma, suspension, top dose 5.24 µM) | 0.993 | > 5.24
54 | BHY (head and neck, adherent, top dose 5.24 µM) | 0.986 | > 5.24

Row | Cell Line | AUC | IC50 [µM]
55 | NCI-H1793 (lung adenocarcinoma, adherent, top dose 5.24 µM) | 0.981 | > 5.24
56 | SK-MM-2 (myeloma, suspension, top dose 5.24 µM) | 0.982 | > 5.24
57 | H9 (lymphoid neoplasm, suspension, top dose 5.24 µM) | 0.99 | > 5.24
58 | SNU-C5 (large intestine, adherent, top dose 5.24 µM) | 0.985 | > 5.24
59 | SU-DHL-6 (B-cell lymphoma, suspension, top dose 5.24 µM) | 0.982 | > 5.24
60 | COR-L311 (small cell lung carcinoma, suspension, top dose 5.24 µM) | 0.966 | > 5.24
61 | HDQ-P1 (breast, adherent, top dose 5.24 µM) | 0.982 | > 5.24
62 | RF-48 (stomach, adherent, top dose 5.24 µM) | 0.983 | > 5.24
63 | LU-165 (small cell lung carcinoma, suspension, top dose 5.24 µM) | 0.984 | > 5.24
64 | RH-1 (rhabdomyosarcoma, adherent, top dose 5.24 µM) | 0.992 | > 5.24
65 | Farage (B-cell lymphoma, suspension, top dose 5.24 µM) | 0.993 | > 5.24
66 | HEC-1 (endometrium, adherent, top dose 5.24 µM) | 0.989 | > 5.24
67 | KM-H2 (Hodgkin lymphoma, suspension, top dose 5.24 µM) | 0.993 | > 5.24
68 | Hs-445 (Hodgkin lymphoma, suspension, top dose 5.24 µM) | 0.988 | > 5.24
69 | ETK-1 (biliary tract, adherent, top dose 5.24 µM) | 0.979 | > 5.24
70 | CAPAN-1 (pancreas, adherent, top dose 5.24 µM) | 0.986 | > 5.24
71 | OCI-AML2 (acute myeloid leukaemia, suspension, top dose 5.24 µM) | 0.995 | > 5.24
72 | JHOS-2 (ovary, adherent, top dose 5.24 µM) | 0.971 | > 5.24
73 | NCI-H2170 (lung squamous cell carcinoma, adherent, top dose 5.24 µM) | 0.985 | > 5.24
74 | L-428 (Hodgkin lymphoma, suspension, top dose 5.24 µM) | 0.98 | > 5.24
75 | Hs633T (fibrosarcoma, adherent, top dose 5.24 µM) | 0.991 | > 5.24
76 | HT55 (large intestine, adherent, top dose 5.24 µM) | 0.99 | > 5.24
77 | MHH-PREB-1 (B-cell leukaemia, suspension, top dose 5.24 µM) | 0.987 | > 5.24
78 | M059J (glioma, adherent, top dose 5.24 µM) | 0.984 | > 5.24
79 | SW156 (kidney, adherent, top dose 5.24 µM) | 0.979 | > 5.24
